Experimental data as given in PubChem BioAssay AID651820 (National Center for Advancing Translational Sciences (NCATS), 2012).
Out of some 340,000 compounds screened, about 12,000 (3.5%) were called active. Inconclusive results, whose numbers are uncertain, are shown with a selection of clear calls. The call rests on the fitted dose curve; in most records, active means well fitted inhibition curve with a large enough effect; inconclusive means small, poorly fitted or top-dose-only effect, or another doubt; inactive means no such curve, though single readings can be large or run the other way. Potencies of inconclusive entries are left out as doubtful fits.

Test: qHTS Assay for Inhibitors of Hepatitis C Virus (HCV)
Settings: Huh7.5.1 HCVcc-Cre (HCVcc is cell-culture hepatitis C virus) infection, luciferase reporter, 44 h; activity change, negative = inhibition: at 41.8 µM (top of the series) unless noted
How it was run: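 Luciferase read-out (15 sec integration) after a 15 min room-temperature substrate step quantifies HCVcc-Cre infection. Cells, 1,000 per well, had compound added 4 h post-plating, then virus at ~0.5 moi, and were cultured 44 h.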
On the % scale 0 is the no-effect control and ±100 the full control effect; potency means the concentration at half of the fitted maximal effect; tags describe the fitted curve by direction and shape.

SMILES | Potency | activity change, negative = inhibition
Cc1ccc(-c2csc(NC(=O)N3CCOCC3)n2)cc1 | inconclusive [inhibitor, single point] | –
CC(=O)Nc1cccc(NC(=O)c2cc3ccccc3o2)c1 | inconclusive [inhibitor, single point] | –
Nc1nc(-c2ccccc2)cn1N | – | inactive: 15.9%
COC(=O)c1ccc(COC(=O)c2[nH]c(C)c(C(C)=O)c2C)o1 | active: 2.24 µM | –
CC(C)(C)c1ccc(OCCCCCCN2CCNCC2)cc1 | active: 7.94 µM | –
O=C(ONC1=NCCCCC1)c1cccc([N+](=O)[O-])c1 | inconclusive [inhibitor, single point] | –
Cc1ccc(S(=O)(=O)NCc2ccncc2)c(C)c1C | active: 0.794 µM | –
C/C(=N\NC(=O)c1cc(C)nc2ccccc12)c1cccc(Cl)c1 | inconclusive [inhibitor, single point] | –
CCCCCCCn1c2c(c(=N)c3c1CCC3)CCCC2 | active: 4.47 µM | –
CCOC(=O)c1ccc2c(c1)C1C=CCC1C(C(=O)OCC)N2 (stereo not given) | inconclusive [inhibitor, full curve, poor fit] | –
CN(C)CCN(C(=O)/C=C/c1cccs1)c1nc2ccc(Br)cc2s1 | inconclusive [inhibitor, single point] | –
COc1ccc(CCNc2oc(-c3ccco3)nc2C#N)cc1 | inconclusive [inhibitor, single point] | –
CC(C)OCCCNC(=O)COCC(=O)Nc1ccc(OCCc2ccccc2)cc1 | inconclusive [inhibitor, single point] | –
CC(=O)c1ccc(OC(C)C)c(CSC(=N)N)c1 | inconclusive [inhibitor, partial curve] | –
COc1ccc2nc(NC(=O)CN3C(=O)NC4(CCCCC4)C3=O)sc2c1 | inconclusive [inhibitor, single point] | –
c1ccc(Cn2nnc(CNc3ccccc3)c2-c2c(CNc3ccccc3)nnn2Cc2ccccc2)cc1 | – | inactive: -6.29%
COc1cc(NC(=O)c2cc3sccc3n2C)cc(OC)c1 | inconclusive [inhibitor, partial curve] | –
CCn1c(C)nc2cc(C(=O)NN=Cc3ccccc3OC(F)F)ccc21 | inconclusive [inhibitor, partial curve] | –
O=C(O)c1ccc(CN2C(=O)c3cccc4c([N+](=O)[O-])ccc(c34)C2=O)cc1 | inconclusive [inhibitor, single point] | –
Cc1ccccc1CCNCc1ccc(Br)cc1 | inconclusive [inhibitor, single point] | –
